Measured values as given in PubChem BioAssay AID488969 (Vanderbilt High Throughput Screening Facility, 2010).
Whole data set: some 110,000 compounds, median “z-score” near -0.1, cut for the highest 2% near 2. The list shows a part of the results. Activity calls are given as the source filed them.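 The calls were made as follows: active = z-score in the third read window above 3 or below -3; inactive = the rest.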

What follows are molecules tested against Metabotropic glutamate receptor 8 (Rattus norvegicus) (UniProt P70579) (assay: rat mGluR8 modulators via GIRK flux, primary screen, cell-based, thallium flux, HTS (AID 488969)). Settings: HEK293 rat mGluR8, GIRK (G protein-gated inwardly rectifying potassium channel) thallium flux, FluoZin2; at 10 µM; stronger effect = higher value; submaximal glutamate (EC20) added with thallium.
Sequence of UniProt P70579 (P70579 whole entry, looked up): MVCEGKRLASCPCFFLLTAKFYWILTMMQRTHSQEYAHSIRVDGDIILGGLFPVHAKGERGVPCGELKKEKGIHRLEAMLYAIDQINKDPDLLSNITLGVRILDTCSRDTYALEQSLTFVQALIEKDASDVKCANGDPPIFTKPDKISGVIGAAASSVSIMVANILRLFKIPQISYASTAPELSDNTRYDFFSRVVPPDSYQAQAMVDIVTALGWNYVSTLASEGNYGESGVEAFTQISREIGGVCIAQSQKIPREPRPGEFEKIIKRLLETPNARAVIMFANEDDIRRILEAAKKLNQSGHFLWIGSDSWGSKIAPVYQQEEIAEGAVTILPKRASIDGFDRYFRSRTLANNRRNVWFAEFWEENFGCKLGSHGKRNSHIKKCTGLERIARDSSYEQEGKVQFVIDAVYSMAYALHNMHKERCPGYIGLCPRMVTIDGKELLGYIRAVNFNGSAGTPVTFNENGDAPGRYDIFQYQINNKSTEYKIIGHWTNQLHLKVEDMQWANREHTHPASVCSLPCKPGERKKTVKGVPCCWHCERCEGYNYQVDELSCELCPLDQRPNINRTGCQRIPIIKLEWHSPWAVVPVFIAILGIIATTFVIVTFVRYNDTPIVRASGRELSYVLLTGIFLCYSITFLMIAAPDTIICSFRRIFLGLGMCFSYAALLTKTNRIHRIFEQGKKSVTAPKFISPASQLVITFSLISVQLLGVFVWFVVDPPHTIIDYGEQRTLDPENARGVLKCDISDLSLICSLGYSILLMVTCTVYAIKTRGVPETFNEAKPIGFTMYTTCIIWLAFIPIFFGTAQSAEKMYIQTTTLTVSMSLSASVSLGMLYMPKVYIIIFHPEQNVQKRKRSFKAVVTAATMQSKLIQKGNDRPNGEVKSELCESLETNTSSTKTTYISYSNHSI
N#Cc1nc(-c2ccccc2F)oc1NCCc1ccccc1 showed a z-score of -0.937.
COc1ccc(OCC(=O)O/N=C(\N)Cc2ccc(Cl)cc2)cc1 showed a z-score of -0.139.
For COC(=O)c1cc(NC2c3ncccc3C(=O)N2Cc2ccccc2)cc(C(=O)OC)c1 (stereo not given), the z-score was -0.697.
Cc1c(NC(=S)NC(=O)C(c2ccccc2)c2ccccc2)cccc1C(=O)O showed a z-score of -0.0288.
COc1ccc(Cl)cc1NC(=O)CS(=O)(=O)c1cccc2nsnc12 was tested, and the z-score was 0.107.
With COc1cc(-c2nnn(CC(=O)N3CCOCC3)n2)cc(OC)c1OC the z-score was -0.0273.
With COC(=O)C1=C(C)N=C2SC(C)C(=O)N2C1c1ccc(C(=O)OC)cc1 (stereo not given) the z-score was 0.45.
NC(=O)c1c(Nc2nc3c(F)cccc3s2)sc2c1CCCC2 was tested, and the z-score was -0.111.
Molecule CC(=O)c1cc(C)ccc1OC(=O)c1cccc2nc(C)oc12 has a z-score of 0.657.
CCOCCCNC(=O)c1c[nH]c2ccc(C)cc2c1=O gave a z-score of -0.144.
For CSc1oc(-c2ccc(F)cc2)nc1S(=O)(=O)c1ccccc1, the z-score was 0.521.
For O=C(NCC(c1cccs1)N1CCOCC1)c1cc([N+](=O)[O-])ccc1Cl (stereo not given), the z-score was 0.0103.
Molecule COc1ccc(C(=O)Sc2ccc(C)cc2)cc1OC has a z-score of 0.102.
CCOc1ccc(Nc2nc(C)cc(C)c2C#N)cc1 gave a z-score of 0.266.
Cc1ccc(NC2=NC(c3ccccc3)n3c(nc(C)cc3=O)N2)cc1 (stereo not given) gave a z-score of -0.124.
For O=C(CCN1C(=O)CSC1=O)Nc1ccccc1, the z-score was 0.165.
With Cc1ccc(C2CC(C(F)(F)F)n3nc(C(=O)NCc4ccco4)cc3N2)cc1 (stereo not given) the z-score was 0.0979.
In the case of CCOc1ccc(CNC(=O)c2ccc(Sc3ccc(C)cc3)c(NC(C)=O)c2)cc1OC, the z-score was -0.0676.
O=c1nc2n(c3ccc(Br)cc13)CCS2 was tested, and the z-score was 0.0624.
Molecule COc1ccc(-c2csc(NC(=O)CSc3nc(C)cs3)n2)cc1 has a z-score of -0.238.
COCCCN1C(=O)C(=O)/C(=C(/O)c2ccc(C)cc2)C1c1ccccc1 (stereo not given) was tested, and the z-score was active: -4.28.
For COc1ccccc1NC(=O)NC1(C(=O)N2CCC(O)CC2)CCCCC1, the z-score was -0.16.
CCOC(=O)Cc1csc(Nc2c(C)n(C)n(-c3ccccc3)c2=O)n1 showed a z-score of 0.934.
Work on COc1ccc(C(=O)/C=C/c2ccc(N3CCCCC3)c([N+](=O)[O-])c2)cc1 yielded a z-score of -0.353.
CCn1c(SCC(=O)c2ccccc2)nnc1-c1cccs1 showed a z-score of -0.252.
Cn1cnc2c(N3CCCCC3)nccc21 gave a z-score of -0.0619.
CCOc1ccc(C(=O)NCC(=O)OCc2c(C)noc2C)cc1 showed a z-score of 1.1.
C/C(=N\NC(=O)c1ccccc1)c1ccc(C)c([N+](=O)[O-])c1 was tested, and the z-score was -0.308.
In the case of O=C(c1ccsc1)N1CCN(C(=O)c2cccs2)CC1, the z-score was -0.208.
CCC(C)(C)n1nnnc1C(C(C)C)N1CCSCC1 (stereo not given) was tested, and the z-score was 0.805.
In the case of COc1ccc(S(=O)(=O)NCc2cn3c(C)csc3n2)cc1F, the z-score was -0.0976.
In the case of O=C(OCCN1C(=O)CCC1=O)c1ccc(S(=O)(=O)N2CCCCC2)cc1, the z-score was -1.06.
Cc1ccccc1NC(=O)c1ccccc1O gave a z-score of -0.396.
Work on CC12CCC(C(=O)N3CCN(Cc4ccccc4)CC3)(OC1=O)C2(C)C (stereo not given) yielded a z-score of -0.0844.
For Cc1cc(NC(=O)c2ccoc2C)no1, the z-score was -0.105.
In the case of O=C(O)c1ccc(-c2cccc(Cl)c2)o1, the z-score was -0.269.
Work on CC(C(=O)OCn1nnc2ccccc2c1=O)N1C(=O)c2ccccc2C1=O (stereo not given) yielded a z-score of -0.219.
For COc1ccccc1NC(=S)NC(=O)C(C)(C)C, the z-score was -0.494.
COC(=O)c1ccc(O)c(Sc2cc(C(=O)OC)ccc2O)c1 was tested, and the z-score was 0.542.
With CC(C)=CC(=O)Nc1nnc(-c2ccccc2)s1 the z-score was -0.169.
For CCC(OC(=O)C1=Cc2ccccc2OC1)C(=O)NC1CCCC1 (stereo not given), the z-score was -0.169.
With Cc1cccc(NC(=O)CSc2ccc(C(N)=O)cc2[N+](=O)[O-])c1C the z-score was -0.0585.
Cc1ccc(-c2noc(C3CCCN(S(=O)(=O)c4ccc5ccccc5c4)C3)n2)o1 (stereo not given) gave a z-score of -0.536.
For CC1Cc2ccccc2N1C(=O)CSc1nnnn1C (stereo not given), the z-score was -0.0139.
Work on CCOC(=O)c1cnn(-c2ccccc2)c1-n1cccc1 yielded a z-score of -0.242.
Molecule Cc1ccc(NC(=O)CN(C)C(=O)CSc2nc3ccccc3o2)cc1 has a z-score of 0.0381.
Molecule COC(=O)c1nc(-c2ccccc2)oc1N(C)C has a z-score of -0.306.
O=C(CSc1nc(-c2ccccc2)c(-c2ccccc2)[nH]1)NCc1ccco1 was tested, and the z-score was -0.317.
Molecule Cc1ccc2nc(/N=C(\N)NC(=O)N3c4ccccc4Sc4ccccc43)nc(C)c2c1 has a z-score of -0.291.
Cc1nn(C)cc1C(C(=O)NC1CCCCC1)N(C(=O)Cn1nnc2ccccc21)c1ccc(F)cc1 (stereo not given) gave a z-score of 0.0895.
N[C@@H](Cc1ccccc1)c1nnc(SCc2ccccc2F)o1 showed a z-score of 0.274.
In the case of S=c1[nH]nc(-c2ccc3ccccc3n2)n1-c1ccccc1, the z-score was 0.119.
Work on Cc1cc2oc(C(=O)NCc3ccncc3)c(C)c2cc1C yielded a z-score of 0.601.
CC(C)C(=O)Nc1c2c(nc3c1CCC3)CCCC2 was tested, and the z-score was -0.105.
For CCC(=O)NCCCCNC(=O)CC, the z-score was 0.217.
COC(=O)Cc1c(C)c2ccc(O)c(CN3CCCC(C)C3)c2oc1=O (stereo not given) showed a z-score of -0.199.
In the case of COC(=O)C(CCSC)NC(=O)Cn1ncc2c(=O)oc3ccccc3c21 (stereo not given), the z-score was -0.652.
Work on CCOCCCN1CN(Cc2ccccc2)CNC1=S yielded a z-score of 0.817.
COC(=O)[C@@H](NC(=O)Nc1ccc2c(c1)OCCO2)C(C)C was tested, and the z-score was 0.876.
Cn1c(CSCc2ccc(Cl)c(Cl)c2)nnc1SCC(=O)Nc1nccs1 was tested, and the z-score was -0.345.
In the case of Cc1ccc(NC(=O)CC2C(=O)N(Cc3ccccc3)C(=S)N2NC(=O)c2cccc(F)c2)c(C)c1 (stereo not given), the z-score was -0.362.
Work on COC(=O)c1cc(OC)c(OC)cc1NC(=O)C(C)Sc1ccc(C)cc1 (stereo not given) yielded a z-score of -0.208.
O=C1c2ccccc2CCC12N=NCC2c1ccc(Br)cc1 (stereo not given) was tested, and the z-score was -0.528.
CCCCCCN=CC1=C(O)C(C(=O)OC)C(C)(C)CC1=O (stereo not given) gave a z-score of 1.67.
Work on Cc1cc(C(=O)Cn2cncn2)c(C)n1CCc1ccc(F)cc1 yielded a z-score of 0.332.
For O=C(CNC(=O)c1ccccn1)N/N=C/c1ccccc1, the z-score was 0.226.
Cc1cc2nn(-c3cccc4ccccc34)nc2cc1N was tested, and the z-score was -0.113.
Cc1ccc(C)c(OCC(=O)O/N=C(\N)c2ccccn2)c1 showed a z-score of -0.331.
C=CCN1C(=NC(=O)CCC)SC2CS(=O)(=O)CC21 (stereo not given) showed a z-score of -0.313.
COc1ccc(N2C(=O)CC(SCC(=O)O)C2=O)cc1 (stereo not given) showed a z-score of -0.0131.
CCOC(=O)C1CCN(Cc2coc3c(Cl)cc(Cl)cc3c2=O)CC1 gave a z-score of -0.853.
Work on O=C(Nc1ccccn1)C(NS(=O)(=O)c1cccc2nsnc12)c1ccccc1 (stereo not given) yielded a z-score of -0.0327.
O=C(c1c(F)cccc1F)N(Cc1ccccn1)C1CCCC1 gave a z-score of 1.16.
COc1ccc(OC)c(C(C)NC(=O)c2ccco2)c1 (stereo not given) showed a z-score of 0.807.
O=C(O)/C=C/C(=O)N1CCN(c2ccccc2F)CC1 gave a z-score of -0.157.
FC(F)(F)c1ccc2c(c1)nc1n2CCCC1 was tested, and the z-score was -0.297.
In the case of CC(C)(Oc1ccc(Cl)cc1)C(=O)NCCCn1ccnc1, the z-score was -0.75.
NCCc1nnc(SCc2ccccc2)o1 gave a z-score of -0.306.
Work on Cc1cc(=O)oc2cc(OCc3cc4c(cc3Cl)OCO4)ccc12 yielded a z-score of -0.117.
Work on COc1ccc(C(=O)Nc2ccc(NC(=O)c3cccs3)cc2)cc1[N+](=O)[O-] yielded a z-score of -0.114.
O=C(Nc1cnccn1)c1ccncc1 gave a z-score of -0.0208.
For CSc1ccccc1NC(=O)COc1ccc(Cl)cc1C, the z-score was -0.353.
For Oc1ccc(Cl)cc1-c1cc(-c2ccccc2)n[nH]1, the z-score was 0.145.
CCOc1cc(/C=N\NC(=O)Cc2ccccc2)ccc1OCC(=O)Nc1ccc(C)c(C)c1 gave a z-score of 0.591.
Work on Cc1ccc(-c2[nH]nc3c2C(c2cccnc2)C(C#N)=C(N)O3)cc1 (stereo not given) yielded a z-score of -0.279.
CN1CCCN(C(=O)/C=C/c2ccc(F)cc2)CC1 gave a z-score of -0.117.
Molecule C=CCN(c1cccc(C(F)(F)F)c1)S(=O)(=O)c1cccc(C(=O)OCC(=O)Nc2ccccc2)c1 has a z-score of 0.214.
Cc1cc(OCC(=O)Nc2ccc(N3CCCC3)cc2)cc(C)c1Cl showed a z-score of 0.138.
In the case of O=c1[nH]c(SCc2nc3ccccc3c(=O)n2-c2ccccc2C(F)(F)F)nc2ccccc12, the z-score was 0.13.
O=C(Nc1ccc2ccccc2c1)Nc1ccc2snnc2c1 was tested, and the z-score was -0.459.
CCOC(=O)N1CCN(C(=O)C2CCN(S(=O)(=O)c3c(C)cc(C)cc3C)CC2)CC1 was tested, and the z-score was -0.267.
With O=C(CCNS(=O)(=O)c1cccc2nsnc12)NCc1cccs1 the z-score was 0.899.
For Cc1c(C(=O)NCCc2ccc3c(c2)OCCO3)oc2ccccc12, the z-score was -0.63.
COCCN(CCOC)S(=O)(=O)c1ccc(C(=O)Nc2nnc(C)o2)cc1 was tested, and the z-score was 0.0793.
Molecule Cc1c(Cl)cccc1-c1ccc(C(=O)N2CCN(c3ccc([N+](=O)[O-])cc3)CC2)o1 has a z-score of 0.808.
Work on CN1C(=S)SC(N2OC3C(=O)N(c4ccccc4)C(=O)C3C2c2ccccc2)C1(C)C (stereo not given) yielded a z-score of 0.107.
C=CCn1c(O)c(N=NC(=O)CNC(=O)/C=C/c2ccco2)c2ccccc21 was tested, and the z-score was -0.524.
With Fc1ccc(NC(=S)NCc2cccs2)cc1 the z-score was 0.11.
With CC(C)CCNC(=O)NC(=O)COc1c(F)c(F)cc(F)c1F the z-score was -0.275.
With CN(C)S(=O)(=O)c1ccc2c(c1)c(=O)c(C(=O)NCCCN1CCCCCC1)cn2C the z-score was -0.138.
Fc1ccccc1Cn1nnc(-c2ccc3c(c2)OCO3)n1 showed a z-score of -0.275.
O=C(O)CSc1ncnc2nc[nH]c12 showed a z-score of -0.258.
In the case of CC(C)OC(=O)c1nnc(Cc2ccc(F)cc2)o1, the z-score was -0.69.
Cc1ccc(S(=O)(=O)N/N=C/c2cccn2-c2ccc(Cl)cc2)cc1 gave a z-score of -0.6.
In the case of Cc1cc(C)c(NC(=O)CN2CCN3CCCC3C2)c(C)c1 (stereo not given), the z-score was -0.118.
In the case of CCN1C(=O)c2cccc3c(S(=O)(=O)NCc4cccnc4)ccc1c23, the z-score was -0.0876.
Work on COc1ccccc1OCc1ccc(C(=O)NCCN(C)C)o1 yielded a z-score of 0.296.
Clc1ccc2nc(CN3CCCCC3)cn2c1 gave a z-score of 0.415.
CCCS(=O)(=O)c1nc(S(=O)(=O)c2ccc(C)cc2)c(N2CCc3ccccc3C2)s1 was tested, and the z-score was -0.151.
CC(C)(C)NC(=O)C1CC(=O)OC1(C)C (stereo not given) gave a z-score of 0.00384.
With COCCCn1c(SCc2nc3ccccc3c(=O)[nH]2)nc2ccccc2c1=O the z-score was 0.022.
For O=C(CCc1ccccc1)NCCC1=CCCCC1, the z-score was -0.00711.
Molecule CCOC(=O)c1sc2cc([N+](=O)[O-])cc(SCC(=O)OC)c2c1N has a z-score of 0.252.
O=c1[nH]c(NNC(=S)NCc2ccccc2)nc2c1C1(CCCCC1)Cc1ccccc1-2 was tested, and the z-score was -0.00601.
COc1ccc(C2N3CC4(C)CN2CC(C)(C3)C4=O)cc1OC (stereo not given) showed a z-score of -0.431.
